{
  "source": "PubChem BioAssay AID1745845",
  "about": "(National Center for Advancing Translational Sciences (NCATS), 2022)",
  "note": "Hit rate of the full screen: of about 360,000 compounds, about 2,600 (0.72%) were called active. Inconclusive means that the source gave no clear call. Such entries were picked first, then a sample of the others. Calls follow the shape of the dose curve; as a rule, active = well fitted inhibition curve with a large enough effect; inconclusive = small, poorly fitted or top-dose-only effect; inactive = no such curve, though single readings can be large or run the other way. Potencies of inconclusive entries are doubtful fits and often do not repeat. Some structures have more than one record in an assay (separate samples or runs), and their calls can disagree. Potency is read from the fitted curve at half-maximal effect; tags tell the direction and shape of the fitted curve.",
  "data": [
    {"test": "Primary qHTS for Inhibitors of ATXN expression; also: nearly all actives have a fitted effect of over 55% in size", "conditions": "HEK-293 ATXN2-luciferase reporter, luminescence, 24 h; series mostly up to 57 µM", "outline": "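qHTS (up to 57 uM final) was run with 24 h compound exposure of reporter cells at 37 °C. Each well was multiplexed: SteadyGlo luminescence measured ATXN2-luciferase expression after a fluorogenic Gly-Phe-AFC viability readout (25 uM final).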", "values": [
      {"smiles": "O=C(Cc1cccs1)NCCSc1c(-c2ccc(Cl)cc2)[nH]c2ccccc12", "Potency": "inconclusive: 21.2 µM [inhibitor, single point]"},
      {"smiles": "O=C1CC(c2cc(F)ccc2F)c2cc3c(cc2N1)CCC3", "note": "(centres undefined)", "Potency": "inactive"},
      {"smiles": "Cc1nn(-c2ccccc2)c(C)c1NC(=O)COC(=O)c1ccc(Cl)c(N)c1", "Potency": "inactive"},
      {"smiles": "O=[N+]([O-])c1cccc(-c2ccc(/C=N/NC(=S)Nc3cccc(F)c3)o2)c1", "Potency": "inactive"},
      {"smiles": "CC1CN(C(=O)COC(=O)[C@@H](NC(=O)c2ccccc2Cl)C(C)C)CC(C)O1", "note": "(some centres undefined)", "Potency": "inconclusive: 14.1 µM [inhibitor, partial curve, poor fit]"},
      {"smiles": "CC1=NNC(=O)/C1=C\\c1cn(-c2ccccc2)nc1-c1ccccc1", "Potency": "inconclusive: 20 µM [inhibitor, partial curve, poor fit]"},
      {"smiles": "Cc1nc(N)nc(N)c1-c1ccc(Cl)c(Cl)c1", "Potency": "active: 7.94 µM"},
      {"smiles": "Cc1ccc(-n2nc3ccc(NC(=O)c4cc5ccccc5o4)cc3n2)cc1", "Potency": "inactive"},
      {"smiles": "CC(C)(C)c1ccc(CC(=O)N2CCC2(C)C(=O)NS(=O)(=O)c2ccccc2)cc1", "note": "(centres undefined)", "Potency": "inactive"},
      {"smiles": "Cc1cc(NS(=O)(=O)c2ccc3nc(-c4ccccc4)[nH]c3c2)ccc1Br", "Potency": "inconclusive: 39.8 µM [inhibitor, single point]"},
      {"smiles": "CC12CCC3c4cc(CN5CCOCC5)c(O)cc4CCC3C1CCC2=O", "note": "(centres undefined)", "Potency": "inactive"},
      {"smiles": "C=C[C@H]1CN2CC[C@H]1C[C@H]2[C@H](O)c1ccnc2ccc(OC)cc12", "Potency": "inconclusive: 31.6 µM [inhibitor, partial curve, poor fit]"},
      {"smiles": "Cc1ccc(C(=O)NC(=S)Nc2ccc(-c3cc4ccccc4oc3=O)cc2)c(C)c1", "Potency": "inconclusive: 17.8 µM [inhibitor, partial curve]"},
      {"smiles": "COc1ccccc1-c1noc(CSc2nnc(Cc3ccccc3)n2-c2ccc(C)c(C)c2)n1", "Potency": "inconclusive: 35.5 µM [inhibitor, single point]"},
      {"smiles": "CN(C(=O)CN1CCN(c2cc(-c3ccc(-c4ccccc4)cc3)ncn2)CC1)c1ccccc1", "Potency": "inconclusive: 31.6 µM [inhibitor, single point]"},
      {"smiles": "CN(C)c1ccc(C=C2C=Cc3ccccc32)cc1", "Potency": "inactive"},
      {"smiles": "COc1ccc(CNc2cc(NCCCO)c([N+](=O)[O-])c3nonc23)cc1", "Potency": "inconclusive: 3.55 µM [inhibitor, full curve]"},
      {"smiles": "Cc1c(-c2cccc(Cl)c2)nc2ccccc2c1C(=O)OC/C(O)=C(\\C#N)c1nc2ccccc2[nH]1", "Potency": "inconclusive: 26.7 µM [inhibitor, partial curve, poor fit]"},
      {"smiles": "CNC(=S)N(CCc1c(C)[nH]c2ccc(Cl)cc12)Cc1cc(OC)c(OC)c(OC)c1", "Potency": "inconclusive: 28.2 µM [inhibitor, single point]"},
      {"smiles": "C=CC(=O)OCCOCCOCCOCCOC(=O)C=C", "Potency": "inconclusive: 39.8 µM [inhibitor, single point]"},
      {"smiles": "O=C(c1ccc(F)cc1)C(CN1CCOCC1)c1ccccc1", "note": "(centres undefined)", "Potency": "inconclusive: 39.8 µM [inhibitor, single point]"},
      {"smiles": "CCCOc1ccccc1C1NC(=O)NC(C)=C1C(=O)OCc1ccccc1", "note": "(centres undefined)", "Potency": "inconclusive: 39.8 µM [inhibitor, single point]"},
      {"smiles": "CCNC(=O)c1cc2c(c(-c3cccc(-c4cc5ccccc5o4)c3)n1)[C@H](CCO)N(C(=O)NC(C)C)C2", "Potency": "inconclusive: 35.5 µM [inhibitor, single point]"},
      {"smiles": "COCCn1c(SCC(=O)/C=C2\\N(C)c3ccccc3C2(C)C)nnc1-c1ccncc1", "Potency": "inconclusive: 35.5 µM [inhibitor, single point]"},
      {"smiles": "O=C(Cc1ccccc1)Nc1ccc2[nH]ncc2c1", "Potency": "inactive"},
      {"smiles": "CC(=O)Nc1ccc(Nc2nc(-c3ccccc3)nc3ccccc23)cc1", "Potency": "inconclusive: 31.6 µM [inhibitor, single point]"},
      {"smiles": "CCOc1cc(C(=O)Nc2ccc(Cl)c(-c3nc4ccccc4[nH]3)c2)cc(OCC)c1OCC", "Potency": "inconclusive: 6.85 µM [inhibitor, partial curve]"},
      {"smiles": "Cc1noc(C)c1S(=O)(=O)Nc1ccc(C(=O)Nc2ccc(OC(F)(F)F)cc2)cc1", "Potency": "inconclusive: 31.6 µM [inhibitor, single point]"},
      {"smiles": "CCC(=O)Nc1cccc(-c2nnc(SCC(=O)c3ccccc3)n2C)c1", "Potency": "inactive"},
      {"smiles": "Cc1ccc(S(=O)(=O)N2[C@@H](c3ccc(C(C)(C)C)cc3)C(C(=O)O)=CC[C@H]2c2ccc(Cl)cc2)cc1", "Potency": "inconclusive: 31.6 µM [inhibitor, single point]"},
      {"smiles": "Cc1ccc(Cl)cc1NC(=O)CN1CCN(S(=O)(=O)N2CCOCC2)CC1", "Potency": "inactive"},
      {"smiles": "CC(C)CC(OC(=O)c1cccs1)C(=O)NCC1CCCO1", "note": "(centres undefined)", "Potency": "inactive"},
      {"smiles": "CCN(CC)c1ccc2c(-c3ccc(S(=O)(=O)O)cc3S(=O)(=O)[O-])c3ccc(=[N+](CC)CC)cc-3oc2c1", "Potency": "inconclusive: 37.7 µM [inhibitor, partial curve, poor fit]"},
      {"smiles": "Cc1ccc2c(c1)c1c3n2CCN(CC(O)CNC(C)C)C3CCC1", "note": "(centres undefined)", "Potency": "inconclusive: 20 µM [inhibitor, partial curve, poor fit]"},
      {"smiles": "CCCn1nc2cc(C(=O)N(CC)c3ccc(OC)cc3)ccc2c1OCC", "Potency": "inactive"},
      {"smiles": "Cc1ccccc1Cn1c(CN2CCC(C(=O)NCc3cccnc3)CC2)cc2ccccc21", "Potency": "inconclusive: 25.1 µM [inhibitor, single point]"},
      {"smiles": "N=c1sccn1CC(=O)Nc1cccc(Oc2ccccc2)c1", "Potency": "inactive"},
      {"smiles": "COc1ccc(Cl)cc1NC(=S)NCCc1c[nH]c2ccccc12", "Potency": "inconclusive: 28.2 µM [inhibitor, single point]"},
      {"smiles": "CCc1ccc(NC(=S)NC(=O)c2c(-c3ccccc3Cl)noc2C)cc1", "Potency": "inactive"},
      {"smiles": "O=C(NCCCSc1ccccc1)c1cc(Cl)ccc1O", "Potency": "inconclusive: 3.16 µM [inhibitor, full curve, poor fit]"},
      {"smiles": "COc1ccc(/C=C2\\SC(=S)N(CCCC(=O)Nc3ccccn3)C2=O)cc1OC", "Potency": "inconclusive: 28.2 µM [inhibitor, partial curve]"},
      {"smiles": "O=C(O)c1ccc2cc(-c3ccc(O)c(C45CC6CC(CC(C6)C4)C5)c3)ccc2c1", "Potency": "active: 1.93 µM"},
      {"smiles": "C/C=C/C=C/C(=O)N1CC[C@]23c4ccccc4N[C@H]4N(C)c5cccc6c5[C@]42CCN([C@H]6C2OC2(C)C)[C@H]13", "note": "(some centres undefined)", "Potency": "inconclusive: 26.7 µM [inhibitor, single point]"},
      {"smiles": "O=C(Cn1ncc(Cl)c(Cl)c1=O)N1CCOCC1", "Potency": "inconclusive: 39.8 µM [inhibitor, single point]"},
      {"smiles": "O=C(Nc1nc(NC(=O)c2ccco2)n(-c2ccccc2)n1)c1ccccc1", "Potency": "inconclusive: 14.1 µM [inhibitor, partial curve, poor fit]"},
      {"smiles": "N#C/C(=N\\Nc1cccc(C(F)(F)F)c1)C(=O)c1csc(-c2cccnc2)n1", "Potency": "inconclusive: 25.1 µM [inhibitor, single point]"},
      {"smiles": "COc1ccc(-c2csc(N(CCCN(C)C)C(=O)c3ccc(C)cc3)n2)cc1", "Potency": "inconclusive: 17.8 µM [inhibitor, partial curve, poor fit]"},
      {"smiles": "Cc1cc2ncn(/N=C/c3ccc(-c4ccccc4)o3)c2cc1C", "Potency": "inconclusive: 15.8 µM [inhibitor, partial curve, poor fit]"},
      {"smiles": "O=C(O)c1ccc(N/N=C/c2ccc(OC(=O)c3ccccc3Cl)cc2)cc1", "Potency": "inconclusive: 9.47 µM [inhibitor, partial curve, poor fit]"},
      {"smiles": "CCc1nc2c(OCc3ccc(Cl)cc3)cccn2c1N(C)C(=O)c1ccco1", "Potency": "inconclusive: 28.2 µM [inhibitor, partial curve]"},
      {"smiles": "CC(=O)O[C@H]1CC[C@H]2[C@@H]3CCc4cc(O)ccc4[C@H]3CC[C@]12C", "Potency": "inconclusive: 35.5 µM [inhibitor, single point]"},
      {"smiles": "CNc1ccc(Cl)cc1S(=O)(=O)c1ccccc1[N+](=O)[O-]", "Potency": "inconclusive: 39.8 µM [inhibitor, single point]"},
      {"smiles": "COc1ccc(-n2nc3c(N4CCC(C(=O)NCc5cccc(F)c5)CC4)nnc(C)c3c2C)cc1", "Potency": "inconclusive: 25.1 µM [inhibitor, single point]"},
      {"smiles": "CS(=O)(=O)c1ccc(C(=O)OCC(=O)N2CCOCC2)cc1[N+](=O)[O-]", "Potency": "inconclusive: 25.1 µM [inhibitor, single point]"},
      {"smiles": "CSCCC(NS(=O)(=O)Cc1ccccc1)C(=O)NNc1ccccc1", "note": "(centres undefined)", "Potency": "inconclusive: 1.41 µM [inhibitor, partial curve, poor fit]"},
      {"smiles": "COc1ccc(C2C=C(c3ccc(F)cc3)Nc3nc(-c4ccc(Cl)cc4)nn32)cc1", "note": "(centres undefined)", "Potency": "inconclusive: 25.1 µM [inhibitor, single point]"},
      {"smiles": "CCCC(=O)N(C1CC(C)C(C#N)(C#N)C1(C#N)C#N)N(C)C", "note": "(centres undefined)", "Potency": "inconclusive: 31.6 µM [inhibitor, single point]"},
      {"smiles": "c1ccc(-c2cc3c(N4CCOCC4)ncnc3s2)cc1", "Potency": "inactive"},
      {"smiles": "Cc1ccc(CN2CCN(Cc3cnc(C)[nH]3)CC2CCO)cc1", "note": "(centres undefined)", "Potency": "inactive"},
      {"smiles": "CCCCCCCNC(=O)C1(CC2CC(c3ccc(Cl)cc3)=NO2)CCN(C(=O)C2(C)CC2)CC1", "note": "(centres undefined)", "Potency": "inconclusive: 25.1 µM [inhibitor, single point]"},
      {"smiles": "CCN(CC)C(=O)Cn1c(=O)n(-c2ccc(Cl)c(Cl)c2)c(=O)c2c(C)c(C(=O)N(CC)CC)sc21", "Potency": "inactive"},
      {"smiles": "Cc1ccc2[nH]c3c(c2c1)CCCC3NC(=O)CCl", "note": "(centres undefined)", "Potency": "inconclusive: 2 µM [inhibitor, partial curve, poor fit]"},
      {"smiles": "CCN(CCNC(=O)C1CCN(Cc2nc(-c3ccc(Cl)cc3)oc2C)CC1)c1ccccc1", "Potency": "inconclusive: 35.5 µM [inhibitor, single point]"},
      {"smiles": "C[C@]12CC[C@H](O)CC1=CCC1C2CC[C@@]2(C)C1CC[C@@H]2NC(=O)[C@@H](N)Cc1ccccc1", "note": "(some centres undefined)", "Potency": "inconclusive: 28.2 µM [inhibitor, single point]"}
    ]}
  ]
}
